# From patent US20240238459A1, “Granzyme-Activatable Membrane-Interacting Peptides and Methods of Use” (priority 2021, published 2024)
# Peptide text beside a SMILES is read from it. * marks the point of attachment. DOTA = O=C(O)CN1CCN(CC(=O)O)CCN(CC(=O)*)CCN(CC(=O)O)CC1; Ahx = NCCCCCC(=O)O
# Tested on: virus
# Assay: PET and biodistribution in viral pneumonia model
# Details: 10 days post infection, 6 hours post radiotracer injection, vs sham
# Source text: It was next evaluated whether ^64Cu-GRIP B PET can detect a productive immune response in a pneumonia model. In collaboration with the Looney lab at UCSF, mice received an intranasal instillation of virus or sham, and were imaged with ^64Cu-GRIP B at 10 days post infection (the time point at which peak recruitment of T cells to the lungs occurs). […] Moreover, high tracer uptake was noted on PET in other organs, for example the liver (*P<0.01). This unexpected finding led to a biodistribution study in lungs and other organs. […] Currently, granzyme B expression in these tissues is being confirmed using autoradiography and IF, and control studies (D-amino acid probe, imaging in germline granzyme B knockout mice) are being performed to confirm the pathogen induced changes in tracer biodistribution are driven by granzyme B.
smiles,measurement,value
"CC[C@H](C)[C@H](NC(=O)[C@H](CCCCN)NC(=O)CNC(=O)[C@H](CC(C)C)NC(=O)[C@H](Cc1ccccc1)NC(=O)[C@H](CCCCN)NC(=O)[C@H](CO)NC(=O)[C@H](Cc1ccccc1)NC(=O)[C@H](Cc1c[nH]c2ccccc12)NC(=O)[C@H](CCC(N)=O)NC(=O)[C@@H](NC(=O)[C@H](Cc1ccccc1)NC(=O)CCCCCNC(=O)CN1CCN(CC(=O)O)CCN(CC(=O)O)CCN(CC(=O)O)CC1)C(C)C)C(=O)N[C@@H](CCC(=O)O)C(=O)N1CCC[C@H]1C(=O)N[C@@H](CC(=O)O)C(=O)N[C@H](C(=O)N[C@@H](CO)C(=O)N[C@@H](CCC(N)=O)C(=O)N[C@H](C(=O)N[C@@H](CCC(N)=O)C(=O)N[C@@H](CC(=O)O)C(=O)N1CCC[C@H]1C(=O)N[C@@H](CC(N)=O)C(=O)N[C@@H](CC(=O)O)C(=O)N[C@@H](CCC(N)=O)C(=O)N[C@@H](Cc1ccc(O)cc1)C(=O)N[C@@H](CCC(=O)O)C(=O)N1CCC[C@H]1C(=O)N[C@@H](Cc1ccccc1)C(=O)O)C(C)C)C(C)C [^64Cu-GRIP B, metal not drawn] ({DOTA-Ahx}-FVQWFSKFLGKIEPDVSQVQDPNDQYEPF-OH)",radiotracer uptake in infected lungs,very high and significantly different than healthy lungs
